The assay in a line: Cell-based coincidence reporter assay to measure PMP22 gene transcription in S16 Pmp22-F2sN cells - Confirmatory screen (AID 1508646). The following applies: S16 Schwann cells Pmp22-F2sN, dual luciferase, 24 h. The gist of the method: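 Coincidence reporter read as sequential FLuc then NLuc luminescence (Nano-Glo Dual-Luciferase, 10 min each). Engineered S16 Pmp22-F2sN Schwann cells, 500-1,000 per well in DMEM/10% FBS, were exposed to compounds for 24 h, 37C.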

[1] abbreviates: measured here: FLuc reporter channel.
The mark [2] stands for this setting: measured here: NLuc reporter channel.

SMILES strings stand for the structures. Some of the results follow. These are further read-outs of the screen, such as a control signal, another cell line or another target. No call is given for them. Compounds called inactive in the main read-out are mostly missing here. Potencies come from curve fits of mixed quality, noted in brackets.
Tags tell the direction and shape of the fitted curve.

What is called AC50 is the midpoint of the concentration-response curve, whichever way the signal moves. A lower AC50 goes with greater potency. `O=C1CC(c2ccccc2)Cc2[nH]c(=O)c(-c3nc(-c4ccc(F)cc4)cs3)cc21` (stereo not drawn): the AC50 runs as follows: under setting [1], 15.3 µM [falling, partial curve]; under setting [2], 21.7 µM [falling, partial curve, poor fit].
For the compound `CCOCCCNC(=O)c1c(NC(=O)c2nc(SC)ncc2Cl)sc2c1CCCC2`, the concentration at half-maximal activity (AC50) was 43.2 µM [falling, single point] under setting [1] and 34.3 µM [falling, partial curve] under setting [2].
For the compound `Cc1cccc(N2CCN(C(=O)c3ccc(CS(=O)c4cccc(Cl)c4)o3)CC2)c1C` (stereo not drawn), the AC50 was 4.32 µM [falling, full curve, poor fit] under setting [1] and 3.43 µM [falling, full curve] under setting [2].
Turning to `COc1ccc(C)cc1NC(=O)c1nnn(CC(=O)Nc2c(C)cccc2C)c1N`, the AC50 is 24.3 µM [falling, single point] under setting [1] and 1.22 µM [rising, full curve, poor fit] under setting [2].
In the case of `CCC(C)NC(=O)C1CCN(C(=O)c2cc3sccc3n2Cc2ccc(Cl)cc2)CC1` (stereo not drawn), the concentration at half-maximal activity (AC50) is 15.3 µM [falling, partial curve] under setting [1] and 12.2 µM [falling, partial curve] under setting [2].
As to `CCOc1cc(-c2nnc(SCC(=O)NCc3ccccc3)nc2-c2ccc(OC)c(OCC)c2)ccc1OC`, the AC50 under setting [1] was 6.11 µM [falling, full curve, poor fit] and the AC50 under setting [2] is 13.7 µM [falling, full curve, poor fit].
For `CCOC(=O)c1ccc(NC(=O)CSc2nc3c([nH]c4ccccc43)c(=O)n2C)cc1`, the AC50 reads like this: under setting [1], 17.2 µM [falling, partial curve]; under setting [2], 21.7 µM [falling, partial curve].
Consider `Cc1cccc(NC(=O)C2CCCN(c3nnc(-n4c(C)ccc4C)s3)C2)c1C` (stereo not drawn), for which the AC50 under setting [1] was 17.2 µM [falling, partial curve, poor fit] and the AC50 under setting [2] is 17.2 µM [falling, partial curve, poor fit].
On to `O=S(=O)(NCCc1csc2nc(-c3ccc(Cl)cc3)nn12)c1ccc(Oc2ccccc2)cc1`, for which the concentration at half-maximal activity (AC50) was 27.3 µM [falling, partial curve, poor fit] under setting [1] and 30.6 µM [falling, single point] under setting [2].
Take `Cc1c(C(=O)Nc2ccccc2Br)oc2ccc(S(=O)(=O)N3CCCCC3)cc12`: the AC50 was 19.3 µM [falling, partial curve, poor fit] under setting [1] and 17.2 µM [falling, partial curve] under setting [2].
`COc1ccc(OC)c(NC(=O)Cn2cnc3onc(-c4ccc(Cl)cc4)c3c2=O)c1`: the concentration at half-maximal activity (AC50) by setting is: under setting [1], 43.2 µM [falling, single point]; under setting [2], 27.3 µM [falling, partial curve].
As for `CCOCCCn1c(=N)c(C(=O)NCC2CCCO2)cc2c(=O)n3cccc(C)c3nc21` (stereo not drawn), the AC50 is 19.3 µM [falling, partial curve, poor fit] under setting [1] and 27.3 µM [falling, partial curve, poor fit] under setting [2].
In the case of `CCC(=O)N1CCc2cc(S(=O)(=O)CCC(=O)Nc3ccc(Cl)c(C(F)(F)F)c3)ccc21`, the AC50 reads like this: under setting [1], 17.2 µM [falling, partial curve]; under setting [2], 19.3 µM [falling, partial curve].
On to `COc1ccc(Cn2c(SCC(N)=O)nc3c(sc4ccccc43)c2=O)cc1`, for which the AC50 was 43.2 µM [falling, single point] under setting [1] and 38.5 µM [falling, single point] under setting [2].
For the compound `Cc1ccc2c(c1)C(=O)C(=O)N2Cc1ccc(OCCC(C)C)cc1`, the AC50 under setting [1] was 10.9 µM [falling, partial curve] and the AC50 under setting [2] is 12.2 µM [falling, partial curve].
As to `Cc1cccc(-c2nnn3c2nc(NCc2ccc4c(c2)OCO4)c2ccccc23)c1`, the AC50 under setting [1] is 15.3 µM [falling, partial curve] and the AC50 under setting [2] is 15.3 µM [falling, partial curve].
With `CCOC(=O)c1c(C)c(-c2ccccc2)n(CC(=O)Nc2cc(C)ccc2OC)c1C`, the AC50 under setting [1] is 24.3 µM [falling, partial curve, poor fit] and the AC50 under setting [2] is 30.6 µM [falling, single point].
Consider `CCCn1ccc2c(OCC(=O)Nc3ccccc3C(=O)OCC)cccc2c1=O`, for which the AC50 under setting [1] was 13.7 µM [falling, full curve] and the AC50 under setting [2] was 15.3 µM [falling, full curve, poor fit].
For `COc1ccc(Cl)cc1NC(=O)CCCS(=O)(=O)c1nc(-c2ccc(OC)c(OC)c2)cc(C(F)(F)F)n1`, the AC50 is 7.69 µM [falling, partial curve] under setting [1] and 10.9 µM [falling, full curve] under setting [2].

These data come from PubChem BioAssay (NCATS).
